The list shows a part of the results. The data scatter; read single values as rough.
How the values were obtained:
Assay in all cases: mutation enrichment score (mutant vs wild-type peptide binding to bait); baits are purified protein domains named by gene / domain / UniProt id / residues; peptides come from disordered regions of human proteins; higher = mutation enhances binding relative to wild type
[1] = target: T1, CSKP_Pkinase__O14936_1_340; conditions: wild-type window: …
T1 chain: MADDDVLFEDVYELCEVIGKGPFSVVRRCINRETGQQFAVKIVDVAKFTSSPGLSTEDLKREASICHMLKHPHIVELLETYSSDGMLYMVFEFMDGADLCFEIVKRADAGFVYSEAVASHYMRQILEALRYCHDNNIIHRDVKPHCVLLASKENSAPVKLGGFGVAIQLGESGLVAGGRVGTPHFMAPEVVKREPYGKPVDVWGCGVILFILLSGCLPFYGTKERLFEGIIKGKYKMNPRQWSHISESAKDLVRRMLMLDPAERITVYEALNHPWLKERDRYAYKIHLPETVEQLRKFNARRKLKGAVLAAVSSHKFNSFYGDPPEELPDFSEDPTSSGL

[2] = target: T2, PEX14_Pex14__O75381_16_84; conditions: number of wild-type / mutant comparisons summed (bounds the score): 12; paper call: no_effect; wild-type window: …
T2 chain: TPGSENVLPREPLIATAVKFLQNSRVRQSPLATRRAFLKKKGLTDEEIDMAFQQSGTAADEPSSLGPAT

[3] = target: T3, CSK21_Pkinase__P68400_1_335; conditions: number of wild-type / mutant comparisons summed (bounds the score): 6; paper call: no_effect; wild-type window: …
T3 chain: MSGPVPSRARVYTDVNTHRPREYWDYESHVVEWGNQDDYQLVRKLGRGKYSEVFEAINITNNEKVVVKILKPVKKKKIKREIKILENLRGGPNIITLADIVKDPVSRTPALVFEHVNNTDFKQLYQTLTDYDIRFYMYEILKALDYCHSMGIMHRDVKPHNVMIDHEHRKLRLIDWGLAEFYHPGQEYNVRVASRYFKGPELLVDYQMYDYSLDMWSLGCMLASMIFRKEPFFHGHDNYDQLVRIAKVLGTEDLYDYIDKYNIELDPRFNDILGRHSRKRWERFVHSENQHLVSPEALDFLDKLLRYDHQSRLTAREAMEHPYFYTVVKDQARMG

[4] = target: T4, EPHA3_Pkinase__P29320_606_947; conditions: number of wild-type / mutant comparisons summed (bounds the score): 6; paper call: no_effect; wild-type window: …
T4 chain: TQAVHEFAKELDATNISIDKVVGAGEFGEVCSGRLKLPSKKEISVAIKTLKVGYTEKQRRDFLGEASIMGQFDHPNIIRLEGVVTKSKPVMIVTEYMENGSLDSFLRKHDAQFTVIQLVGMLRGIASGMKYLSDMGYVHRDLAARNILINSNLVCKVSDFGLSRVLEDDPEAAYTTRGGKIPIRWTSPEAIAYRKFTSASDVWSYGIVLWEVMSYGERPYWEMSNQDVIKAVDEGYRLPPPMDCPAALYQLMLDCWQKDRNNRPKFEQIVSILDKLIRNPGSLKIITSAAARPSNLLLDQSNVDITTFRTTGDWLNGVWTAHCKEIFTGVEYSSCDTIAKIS

[5] = target: DMD_WW-EF__P11532_3055_3088; conditions: number of wild-type / mutant comparisons summed (bounds the score): 6; paper call: no_effect; wild-type window: …
[6] = target: NEDD4_WW_2_P46934_765_803; conditions: wild-type window: …
[7] = target: SMURF2_WW_3_Q9HAU4_298_330; conditions: number of wild-type / mutant comparisons summed (bounds the score): 6; paper call: no_effect; wild-type window: …
WWTR1_WW__Q9GZV5_122_160 = conditions: wild-type window: …
[8] = target: T5, G3BP2_NTF2_1_Q9UN86_1_139; conditions: number of wild-type / mutant comparisons summed (bounds the score): 6; paper call: no_effect; wild-type window: …
T5 chain: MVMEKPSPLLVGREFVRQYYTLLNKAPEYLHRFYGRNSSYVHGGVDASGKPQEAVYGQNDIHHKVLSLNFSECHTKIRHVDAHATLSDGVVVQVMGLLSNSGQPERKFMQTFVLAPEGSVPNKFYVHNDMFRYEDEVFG

[9] = target: T6, EPHB2_Pkinase__P29323_604_898; conditions: number of wild-type / mutant comparisons summed (bounds the score): 6; paper call: no_effect; wild-type window: …
T6 chain: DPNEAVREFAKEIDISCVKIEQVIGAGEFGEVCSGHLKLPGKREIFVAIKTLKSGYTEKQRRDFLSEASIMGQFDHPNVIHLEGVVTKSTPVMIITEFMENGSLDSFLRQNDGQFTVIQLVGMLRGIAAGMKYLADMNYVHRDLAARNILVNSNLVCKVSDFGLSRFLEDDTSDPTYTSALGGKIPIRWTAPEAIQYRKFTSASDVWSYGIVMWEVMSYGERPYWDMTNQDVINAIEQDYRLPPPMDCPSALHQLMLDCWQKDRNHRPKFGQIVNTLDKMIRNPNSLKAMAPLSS

REPS1___Q96D71_226_314 = conditions: number of wild-type / mutant comparisons summed (bounds the score): 6; paper call: no_effect; wild-type window: …
VCL_Vinc__P18206_1_258 = target: T7, VCL_Vinc__P18206_1_258; conditions: number of wild-type / mutant comparisons summed (bounds the score): 6; paper call: no_effect; wild-type window: …
T7 chain: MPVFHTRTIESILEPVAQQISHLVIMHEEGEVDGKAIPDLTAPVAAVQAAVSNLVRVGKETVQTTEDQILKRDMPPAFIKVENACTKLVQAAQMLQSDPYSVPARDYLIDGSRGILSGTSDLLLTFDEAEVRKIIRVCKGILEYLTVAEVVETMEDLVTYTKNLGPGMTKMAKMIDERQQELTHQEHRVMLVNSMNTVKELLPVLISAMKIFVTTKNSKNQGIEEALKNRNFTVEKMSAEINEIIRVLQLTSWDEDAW

[10] = number of wild-type / mutant comparisons summed (bounds the score): 6, paper call: no_effect
[11] = number of wild-type / mutant comparisons summed (bounds the score): 12, paper call: no_effect
[12] = number of wild-type / mutant comparisons summed (bounds the score): 6, paper call: enhanced
[13] = number of wild-type / mutant comparisons summed (bounds the score): 12, paper call: diminished

Sequence of WWTR1_WW__Q9GZV5_122_160 (chain, as listed by the source): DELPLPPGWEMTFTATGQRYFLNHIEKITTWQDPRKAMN
Sequence of NEDD4_WW_2_P46934_765_803 (chain, as listed by the source): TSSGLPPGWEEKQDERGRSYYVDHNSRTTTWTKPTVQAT

## YRKHCLEQGKQQLMPQEAGLVEEFLLTDNSAIWQTVEELDY [A676V A676V]
[1]; [10]
  mutation enrichment score: 4
[2]
  mutation enrichment score: 4

## PEDDRPEAIPELHMVPAAWRVLEMPAPADDSSSSLGDVSPE [G2971V G2971V]
[3]
  mutation enrichment score: 2
[4]
  mutation enrichment score: 3

## PPAPSEDIWKKFELLPTPPLFPSRRSGLCSPSYVAVTPFSL [S62F S62F]
[1]; [10]
  mutation enrichment score: -1.7

## ELQPPAPSEDIWKKFELLPTAPLSPSRRSGLCSPSYVAVTP [P59A P59A]
[1]; [11]
  mutation enrichment score: 1.5

## VTIWAAGAGATHSPPTDLVWEAQNTWGCGNSLRTALINSTG [K515E K515E]
[1]; [10]
  mutation enrichment score: -1

## RVGFGSGQPPPYDHLFEVALLKTAHHFVIRKTEELLKKAKG [P613L P613L]
[5]
  mutation enrichment score: -3
[6]; [10]
  mutation enrichment score: 0.26
[7]
  mutation enrichment score: -5.6
WWTR1_WW__Q9GZV5_122_160; [10]
  mutation enrichment score: -3.8

## HVVVFMLGTIPFPEGMGGSVCFSYPDSNGMPVWQLLGFVTN [Y55C Y55C]
[1]; [12]
  mutation enrichment score: 6
[8]
  mutation enrichment score: -3

## YQCWDCQELFPSPELWVAHRTAQHLSATVAEPPVPPPLPPP [K160T K160T]
[1]; number of wild-type / mutant comparisons summed (bounds the score): 18, paper call: no_effect
  mutation enrichment score: 4
[4]
  mutation enrichment score: -1.5
[9]
  mutation enrichment score: -0.23
REPS1___Q96D71_226_314
  mutation enrichment score: -0.021

## DRGASLGPPPYLRTEFHQHQQQHQHTHQHTHQHTFTPFPHA [H529Q H529Q]
[5]
  mutation enrichment score: 3.8
[6]; [10]
  mutation enrichment score: -2.9
[7]
  mutation enrichment score: 1
WWTR1_WW__Q9GZV5_122_160; [10]
  mutation enrichment score: 1

## NHVVVFMLGTIPFPEGMGGSLYFSYPDSNGMPVWQLLGFVT [V54L V54L]
[1]; [10]
  mutation enrichment score: 5
[8]
  mutation enrichment score: -1.3

## GAGATHSPPTDLVWKAQNTWVCGNSLRTALINSTGEEVAMR [G521V G521V]
[1]; [11]
  mutation enrichment score: 5.1

## GATHSPPTDLVWKAQNTWGCRNSLRTALINSTGEEVAMRKL [G523R G523R]
[1]; [10]
  mutation enrichment score: 2.2

## YTPPVTSGMSLGMSATTHYHIYLPPPYPGSSQSQSGPFQTS [T420I T420I]
[5]
  mutation enrichment score: -4
[6]; [13]
  mutation enrichment score: -8
[7]
  mutation enrichment score: -3
WWTR1_WW__Q9GZV5_122_160; [13]
  mutation enrichment score: -12

## AVPKYYQSPWEQAISNDPELSEALYPKLFKPEGKAELPDYR [L163S L163S]
[1]; [12]
  mutation enrichment score: 6
VCL_Vinc__P18206_1_258
  mutation enrichment score: -3

## LQPCFYPDEDDFYFGGPDSTLPGEDIWKKFELLPTPPLSPS [P44L P44L]
[1]; [11]
  mutation enrichment score: 2.4

## QHLDSPNIGVYEGDRVWLKKSPGDQHIAIRPATKTAFSKLQ [F565S F565S]
[1]; number of wild-type / mutant comparisons summed (bounds the score): 12, paper call: enhanced
  mutation enrichment score: 8

Source: the supplement of paper PMC11369174, “Proteome-scale characterisation of motif-based interactome rewiring by disease mutations” (Molecular Systems Biology, 2024)
